Hit rate of the full screen: of about 39,000 compounds, about 220 (0.56%) showed activity. This is one part of the list.
System: Escherichia coli K-12 BW25113
Assay: relative growth (OD600 normalised to plate interquartile mean) (fraction); higher = less growth inhibition, active = 0.2 or less
Conditions: 50 µM; LB; incubation time: overnight (16-24 h)
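Further: static incubation at 37 °C against the wild-type strain, values averaged over two biological replicates.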

| Compound | relative growth |
| --- | --- |
| CC(=O)Oc1ccc2c(C)cc(=O)oc2c1 | inactive: 1.09 |
| C[C@H]1CN([C@@H](C)CO)C(=O)c2cc(NC(=O)Cn3cnnn3)ccc2O[C@H]1CN(C)C(=O)Nc1ccc(C(F)(F)F)cc1 | inactive: 0.981 |
| COc1ccc(NC(=O)Nc2ccc3c(c2)CC(=O)N([C@H](C)CO)C[C@@H](C)[C@H](CN(C)Cc2ccc(C(F)(F)F)cc2)O3)cc1 | inactive: 1.04 |
| C[C@H](CO)N1C[C@H](C)[C@@H](CN(C)C(=O)Nc2ccc3c(c2)OCO3)OCCCC[C@H](C)Oc2ccc(NC(=O)C3CCCCC3)cc2C1=O | inactive: 1.01 |
| C[C@H](CO)N1C[C@H](C)[C@H](CN(C)C(=O)Nc2ccc(C(F)(F)F)cc2)OCCCC[C@H](C)Oc2ccc(NC(=O)Nc3ccc4c(c3)OCO4)cc2C1=O | inactive: 1 |
| Cc1c(C(=O)O)c(O)cc2c1C(=O)c1c(O)c(C3OC(CO)C(O)C(O)C3O)c(O)c(O)c1C2=O (stereo not given) | inactive: 1.1 |
| C[C@H](CO)N1C[C@H](C)[C@H](CN(C)C(=O)Nc2ccc(C(F)(F)F)cc2)Oc2ccc(NC(=O)CCC(F)(F)F)cc2C1=O | inactive: 0.985 |
| COc1ccc(NC(=O)Nc2ccc3c(c2)C(=O)N([C@@H](C)CO)C[C@@H](C)[C@@H](CN(C)C(=O)C2CCCCC2)OCCCC[C@@H](C)O3)cc1 | inactive: 0.993 |
| C[C@H]1CN([C@@H](C)CO)C(=O)Cc2cc(NC(=O)Cc3ccccc3)ccc2O[C@H]1CN(C)S(C)(=O)=O | inactive: 0.999 |
| C[C@H]1CCCCO[C@H](CN(C)Cc2ccccc2)[C@@H](C)CN([C@@H](C)CO)C(=O)c2cc(NC(=O)NC3CCCCC3)ccc2O1 | inactive: 1.05 |
| C[C@@H]1CCCCO[C@H](CN(C)C(=O)NC2CCCCC2)[C@H](C)CN([C@H](C)CO)C(=O)c2cc(NC(=O)Cc3ccccc3)ccc2O1 | inactive: 0.986 |
| COc1ccc(NC(=O)Nc2cccc3c2O[C@H](CN(C)C(=O)Nc2ccc(C(F)(F)F)cc2)[C@@H](C)CN([C@@H](C)CO)C3=O)cc1 | inactive: 0.748 |
| Cc1ccc(S(=O)(=O)Nc2ccc3c(c2)C(=O)N([C@H](C)CO)C[C@@H](C)[C@H](CN(C)Cc2ccc(C(F)(F)F)cc2)OCCCC[C@H](C)O3)cc1 | inactive: 0.988 |
| Cc1noc(C)c1NC(=O)N(C)C[C@@H]1Oc2ccc(NC(=O)Nc3cccc4ccccc34)cc2CC(=O)N([C@@H](C)CO)C[C@H]1C | inactive: 0.967 |
| O=C(C[C@@H]1CC[C@H]2[C@@H](COC[C@H](O)CN2S(=O)(=O)c2ccc(Cl)cc2)O1)NCC1CCCCC1 | inactive: 0.88 |
| C[C@H](CO)N1C[C@H](C)[C@@H](CN(C)S(=O)(=O)c2cn(C)cn2)Oc2ccc(NS(=O)(=O)c3cccs3)cc2CC1=O | inactive: 1.01 |
| COc1ccc(NC(=O)N(C)C[C@H]2Oc3ccc(NC(=O)CCCCCC(=O)Nc4ccccc4N)cc3C(=O)N([C@H](C)CO)C[C@H]2C)cc1 | inactive: 0.968 |
| C[C@H](CO)N1C[C@H](C)[C@H](CN(C)Cc2ccccc2)Oc2ccc(NS(=O)(=O)c3cn(C)cn3)cc2C1=O | inactive: 0.962 |
| C[C@H]1CN([C@@H](C)CO)C(=O)c2ccccc2-c2ccccc2CO[C@@H]1CN(C)Cc1cccc(C(F)(F)F)c1 | inactive: 1.06 |
| CC(C)NC(=O)N(C)C[C@H]1OCc2cnnn2CCCC(=O)N([C@@H](C)CO)C[C@@H]1C | inactive: 1 |

| Compound | relative growth |
| --- | --- |
| C[C@@H]1CN([C@H](C)CO)C(=O)c2cc(NC(=O)c3ccccc3)ccc2O[C@@H](C)CCCCO[C@@H]1CN(C)Cc1ccncc1 | inactive: 1.06 |
| C[C@@H]1CN([C@@H](C)CO)C(=O)c2cc(NC(=O)Nc3ccc(F)cc3)ccc2O[C@@H](C)CCCCO[C@@H]1CN(C)Cc1ccccc1 | inactive: 1.07 |
| C[C@@H]1CCCCO[C@H](CN(C)C(=O)Nc2ccc(F)cc2)[C@@H](C)CN([C@@H](C)CO)C(=O)c2cc(NC(=O)Cc3ccccc3)ccc2O1 | inactive: 0.99 |
| COc1ccc(S(=O)(=O)N(C)C[C@H]2Oc3c(NC(=O)Cn4cnnn4)cccc3C(=O)N([C@H](C)CO)C[C@@H]2C)cc1 | inactive: 1.02 |
| C=CC[C@H](CC(=O)N(CCO)Cc1ccccc1)C(=O)N[C@@H](COC(=O)[C@@H](CC=C)Cc1ccc(F)cc1)Cc1c[nH]c2ccccc12 | inactive: 1.01 |
| CC(C)C#Cc1ccc2c(c1)O[C@@H](CN(C)C(=O)Cc1ccccn1)[C@H](C)CN([C@H](C)CO)S2(=O)=O | inactive: 0.98 |
| Cc1noc(C)c1NC(=O)Nc1ccc2c(c1)C(=O)N([C@@H](C)CO)C[C@@H](C)[C@H](CN(C)C(=O)NC(C)C)O2 | inactive: 0.979 |
| CC(C)NC(=O)Nc1ccc2c(c1)C(=O)N([C@@H](C)CO)C[C@H](C)[C@H](CN(C)C(=O)NC1CCCCC1)O2 | inactive: 0.981 |
| O=C(C1=C[C@H](c2ccc(C(F)(F)F)cc2)C[C@H](OCc2ccc(CO)cc2)O1)N1CCN(Cc2ccccc2)CC1 | inactive: 1 |
| C[C@H]1CCCCO[C@H](CN(C)CC2CCCCC2)[C@@H](C)CN([C@@H](C)CO)C(=O)c2cc(NC(=O)Nc3cccc4ccccc34)ccc2O1 | inactive: 0.984 |
| C[C@@H]1CN([C@H](C)CO)C(=O)c2cc(NC(=O)Nc3cccc4ccccc34)ccc2O[C@@H]1CN(C)Cc1ccncc1 | inactive: 0.986 |
| CCOC(=O)c1c[nH]cnc1=O | inactive: 0.973 |
| C[C@H](CO)N1C[C@H](C)[C@H](CN(C)C(=O)Nc2ccccc2C(F)(F)F)OCc2cn(nn2)CCCC1=O | inactive: 0.989 |
| C[C@@H]1CN([C@H](C)CO)C(=O)c2cc(NC(=O)Nc3ccc4c(c3)OCO4)ccc2O[C@@H](C)CCCCO[C@H]1CN(C)C(=O)Cc1ccccc1 | inactive: 1.02 |
| COc1ccc2c(c1)[n+]([O-])c1c([n+]2[O-])CCC1 | inactive: 1 |
| COCC(=O)Nc1ccc2c(c1)[C@H]1C[C@H](CC(=O)N3CCOCC3)O[C@@H](CO)[C@H]1O2 | inactive: 0.985 |
| C[C@H]1CN([C@@H](C)CO)C(=O)Cc2cc(NC(=O)Nc3ccc(F)cc3)ccc2O[C@@H]1CN(C)CC1CCCCC1 | inactive: 0.984 |
| COCC#Cc1ccc2c(c1)O[C@H](CN(C)C(=O)COC)[C@H](C)CN([C@H](C)CO)S2(=O)=O | inactive: 1.01 |
| C[C@@H]1CCCCO[C@H](CN(C)C(=O)Nc2ccc(F)cc2)[C@H](C)CN([C@H](C)CO)C(=O)c2cc(NC(=O)C3CCCCC3)ccc2O1 | inactive: 1.01 |
| C[C@@H]1CN([C@H](C)CO)C(=O)c2cc(NC(=O)NC3CCCCC3)ccc2O[C@@H](C)CCCCO[C@@H]1CN(C)S(=O)(=O)c1cccs1 | inactive: 1.02 |

| Compound | relative growth |
| --- | --- |
| Cc1cc(C)c(C(=O)O)c(=O)[nH]1 | inactive: 0.967 |
| C[C@@H]1CN([C@H](C)CO)C(=O)c2cc(C#CC3CCCC3)cnc2O[C@@H]1CN(C)S(=O)(=O)c1cccc(F)c1 | inactive: 1.01 |
| O=C(O)CNC(=O)CN1C(=O)c2ccccc2C1=O | inactive: 0.978 |
| C[C@H](CO)N1C[C@H](C)[C@H](CN(C)Cc2ccncc2)Oc2ccc(NC(=O)CCN3CCOCC3)cc2C1=O | inactive: 0.999 |
| Cn1c(=O)[nH]c(=O)c2c1nc(N1CCN(CCO)CC1)n2CCC#N | inactive: 0.994 |
| C[C@@H]1CN([C@@H](C)CO)C(=O)c2cc(C#CCN(C)C)cnc2O[C@@H]1CN(C)Cc1ccc2c(c1)OCO2 | inactive: 1.02 |
| C[C@@H]1CCCCO[C@H](CN(C)S(=O)(=O)c2ccc(F)cc2)[C@H](C)CN([C@@H](C)CO)C(=O)c2cc(NC(=O)Nc3ccc(F)cc3)ccc2O1 | inactive: 1.03 |
| CS(=O)(=O)Nc1ccc2c(c1)[C@@H]1C[C@H](CC(=O)NCc3ccc(-c4ccccc4)cc3)O[C@@H](CO)[C@@H]1O2 | inactive: 0.976 |
| C[C@@H]1CN([C@H](C)CO)C(=O)Cc2cc(NC(=O)Cn3cnnn3)ccc2O[C@H]1CN(C)CC1CC1 | inactive: 1.02 |
| C[C@H](CO)N1C[C@H](C)[C@H](CN(C)C(=O)Nc2ccc(F)cc2)Oc2ccc(NC(=O)CCCCCC(=O)Nc3ccccc3N)cc2C1=O | inactive: 0.962 |
| C[C@H](CO)N1C[C@H](C)[C@@H](CN(C)C(=O)Nc2ccc3c(c2)OCO3)OCCCC[C@H](C)Oc2ccc(NC(=O)c3ccccc3)cc2C1=O | inactive: 1.03 |
| C[C@H](CO)N1C[C@H](C)[C@H](CN(C)S(C)(=O)=O)Oc2ccc(NC(=O)Cc3ccccc3)cc2C1=O | inactive: 1.02 |
| O=C(O)C1CCOCC1 | inactive: 0.957 |
| CC(C)C#Cc1ccc2c(c1)O[C@H](CN(C)C(=O)c1cccc(F)c1)[C@@H](C)CN([C@H](C)CO)S2(=O)=O | inactive: 0.974 |
| Cc1noc(C)c1NC(=O)N(C)C[C@H]1OCCCC[C@H](C)Oc2ccc(NS(=O)(=O)c3cccs3)cc2C(=O)N([C@@H](C)CO)C[C@H]1C | inactive: 0.998 |
| Cc1noc(C)c1NC(=O)N(C)C[C@@H]1Oc2ncc(Br)cc2C(=O)N([C@@H](C)CO)C[C@H]1C | inactive: 0.985 |
| C[C@H]1CN([C@@H](C)CO)C(=O)c2cccc(NC(=O)Nc3cccc4ccccc34)c2O[C@H]1CN(C)Cc1ccc(Oc2ccccc2)cc1 | inactive: 1.02 |
| O=S(=O)([O-])NC1CCCCC1.[Na+] | inactive: 1.04 |
| C[C@@H]1CCCCO[C@@H](CN(C)S(=O)(=O)c2ccccc2)[C@@H](C)CN([C@@H](C)CO)C(=O)c2cc(NC(=O)CCC(F)(F)F)ccc2O1 | inactive: 0.828 |
| CC(C)c1c(O)ccc2c1CC[C@H]1C(C)(C)CCC[C@]21C | inactive: 0.94 |

From the supplement of paper PMC9446081
